Results as given in patent US20260034244A1 (PANOLOS BIOSCIENCE, published 2026).

How the values were obtained:
VEGF-A [1] = target: T1, VEGF-A (UniProt P15692-4 27-191, limits assumed); assay: BLI (Octet), fusion captured on AHC sensor; fold increase vs VEGF-Grab3 (Samsung Biologics)
T1 construct: Analyte at 40, 20, 10 nM; also called vascular endothelial growth factor A
T1 sequence (looked up): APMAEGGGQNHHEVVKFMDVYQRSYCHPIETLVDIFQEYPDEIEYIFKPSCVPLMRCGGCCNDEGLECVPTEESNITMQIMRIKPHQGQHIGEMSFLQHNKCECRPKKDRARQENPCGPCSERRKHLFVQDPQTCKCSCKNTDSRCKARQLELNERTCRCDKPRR

PLGF [2] = target: T2, PLGF (UniProt P49763-2 19-149, limits assumed); assay: as above
T2 construct: also called placental growth factor
T2 sequence (looked up): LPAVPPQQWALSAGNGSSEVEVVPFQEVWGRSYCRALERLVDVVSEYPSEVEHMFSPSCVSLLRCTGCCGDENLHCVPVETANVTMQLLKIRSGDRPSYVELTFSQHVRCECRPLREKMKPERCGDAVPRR

VEGF-A [3] = target: T3, VEGF-A (UniProt P15692-4 27-191, limits assumed); assay: BLI Octet; fold increase vs VEGF-Grab3 (Samsung Biologics)
T3 construct: also called vascular endothelial growth factor A
T3 sequence (looked up): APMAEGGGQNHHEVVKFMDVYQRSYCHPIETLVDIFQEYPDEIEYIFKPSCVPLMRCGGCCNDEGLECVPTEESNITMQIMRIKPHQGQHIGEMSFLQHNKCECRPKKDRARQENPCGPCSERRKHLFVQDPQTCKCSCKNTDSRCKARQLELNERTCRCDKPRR

PLGF [4] = target: T4, PLGF (UniProt P49763-2 19-149, limits assumed); assay: as above
T4 construct: also called placental growth factor
T4 sequence (looked up): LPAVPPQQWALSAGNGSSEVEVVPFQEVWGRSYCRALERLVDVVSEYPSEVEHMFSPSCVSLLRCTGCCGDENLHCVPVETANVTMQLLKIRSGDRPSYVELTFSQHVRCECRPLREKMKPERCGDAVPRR

Binder	Fold (KD) (VEGF-A [1]) [fold]	Fold (kdis) (VEGF-A [1]) [fold]	Fold (kon) (VEGF-A [1]) [fold]	Fold (KD) (PLGF [2]) [fold]	Fold (kdis) (PLGF [2]) [fold]	Fold (kon) (PLGF [2]) [fold]	Fold (KD) (VEGF-A [3]) [fold]	Fold (kdis) (VEGF-A [3]) [fold]	Fold (kon) (VEGF-A [3]) [fold]	Fold (KD) (PLGF [4]) [fold]	Fold (kdis) (PLGF [4]) [fold]	Fold (kon) (PLGF [4]) [fold]
C41 (Fc fusion, Linker variant based on VEGF-Grab3) EFGRPFVEMYSEIPEIIHMTEGRELVIPCRVTSPNITVTLKKFPLDTLIPDGKRIIWDSRKGFIISNATYKEIGLLTCEATVNGHLYKTNYLTHRQTNTIIDVQISTPSPVTLLRGHTLVLNCTATTPLNTRVQMTWSYPDEKNKNASVRRRIDQSNSHANIFYSVLTIDKMQNKDKGLYTCRVRSGPSFKSVNTSVHIYDGSGGGGSGGGGSGGGGSAESKYGPP[gap - human IgG1 Fc]	0.11	0.07	1.56	5.19	2.12	2.45						
C45 (Fc fusion, Linker variant based on VEGF-Grab3) EFGRPFVEMYSEIPEIIHMTEGRELVIPCRVTSPNITVTLKKFPLDTLIPDGKRIIWDSRKGFIISNATYKEIGLLTCEATVNGHLYKTNYLTHRQTNTIIDVQISTPSPVTLLRGHTLVLNCTATTPLNTRVQMTWSYPDEKNKNASVRRRIDQSNSHANIFYSVLTIDKMQNKDKGLYTCRVRSGPSFKSVNTSVHIYDEGSSGGSSGEPKS[gap - human IgG1 Fc and a few adjoining residues]	0.15	0.12	1.23	2.59	1.5	1.72						
C44 (Fc fusion, Linker variant based on VEGF-Grab3) EFGRPFVEMYSEIPEIIHMTEGRELVIPCRVTSPNITVTLKKFPLDTLIPDGKRIIWDSRKGFIISNATYKEIGLLTCEATVNGHLYKTNYLTHRQTNTIIDVQISTPSPVTLLRGHTLVLNCTATTPLNTRVQMTWSYPDEKNKNASVRRRIDQSNSHANIFYSVLTIDKMQNKDKGLYTCRVRSGPSFKSVNTSVHIYDGSNTGSGGEEKKKEKEKEEQEERSSDTPP[gap - human IgG1 Fc]	0.09	0.05	1.71	2.48	1.42	1.74						
C43 (Fc fusion, Linker variant based on VEGF-Grab3) EFGRPFVEMYSEIPEIIHMTEGRELVIPCRVTSPNITVTLKKFPLDTLIPDGKRIIWDSRKGFIISNATYKEIGLLTCEATVNGHLYKTNYLTHRQTNTIIDVQISTPSPVTLLRGHTLVLNCTATTPLNTRVQMTWSYPDEKNKNASVRRRIDQSNSHANIFYSVLTIDKMQNKDKGLYTCRVRSGPSFKSVNTSVHIYDGSNTGSGGEEKKKEKEKEEQEERSS[gap - human IgG1 Fc with H224Y (EU numbers)]	0.12	0.07	1.63	2.67	2.99	0.89						
C36 (Fc fusion, Linker variant based on VEGF-Grab3) EFGRPFVEMYSEIPEIIHMTEGRELVIPCRVTSPNITVTLKKFPLDTLIPDGKRIIWDSRKGFIISNATYKEIGLLTCEATVNGHLYKTNYLTHRQTNTIIDVQISTPSPVTLLRGHTLVLNCTATTPLNTRVQMTWSYPDEKNKNASVRRRIDQSNSHANIFYSVLTIDKMQNKDKGLYTCRVRSGPSFKSVNTSVHIYDGSKVDKKV[gap - human IgG1 Fc with C220S (EU numbers)]	0.2	0.14	1.36	2.21	1.29	1.72						
C39 (Fc fusion, Linker variant based on VEGF-Grab3) EFGRPFVEMYSEIPEIIHMTEGRELVIPCRVTSPNITVTLKKFPLDTLIPDGKRIIWDSRKGFIISNATYKEIGLLTCEATVNGHLYKTNYLTHRQTNTIIDVQISTPSPVTLLRGHTLVLNCTATTPLNTRVQMTWSYPDEKNKNASVRRRIDQSNSHANIFYSVLTIDKMQNKDKGLYTCRVRSGPSFKSVNTSVHIYDGSKVDKKVEPKSSDTPP[gap - human IgG1 Fc]	0.21	0.14	1.49	6.64	2.65	2.5						
C32 (Fc fusion, Linker variant based on VEGF-Grab3; The Fc region is described as a dimerization domain) EFGRPFVEMYSEIPEIIHMTEGRELVIPCRVTSPNITVTLKKFPLDTLIPDGKRIIWDSRKGFIISNATYKEIGLLTCEATVNGHLYKTNYLTHRQTNTIIDVQISTPSPVTLLRGHTLVLNCTATTPLNTRVQMTWSYPDEKNKNASVRRRIDQSNSHANIFYSVLTIDKMQNKDKGLYTCRVRSGPSFKSVNTSVHIYDGSSG[gap - human IgG1 Fc with changes]	0.57	0.37	1.53	4.4	3.85	1.14						
C27 (Fc fusion, Based on VEGF-Grab3; K241E/L243S/R244V/H246E/L258A/K300G/Q302T/K304S; IgG1 Fc) EFGRPFVEMYSEIPEIIHMTEGRELVIPCRVTSPNITVTLKKFPLDTLIPDGKRIIWDSRKGFIISNATYKEIGLLTCEATVNGHLYKTNYLTHRQTNTIIDVQISTPSPVELSVGETLVLNCTATTPANTRVQMTWSYPDEKNKNASVRRRIDQSNSHANIFYSVLTIDGMTNSDKGLYTCRVRSGPSFKSVNTSVHIYDE[gap - human IgG1 Fc]							0.05	0.03	1.43	0.7	0.33	2.13
C25 (Fc fusion, Based on VEGF-Grab3; K241E/L243S/R244V/H246E/L258A/K300G/Q302T/K304S/K306Q; IgG1 Fc) EFGRPFVEMYSEIPEIIHMTEGRELVIPCRVTSPNITVTLKKFPLDTLIPDGKRIIWDSRKGFIISNATYKEIGLLTCEATVNGHLYKTNYLTHRQTNTIIDVQISTPSPVELSVGETLVLNCTATTPANTRVQMTWSYPDEKNKNASVRRRIDQSNSHANIFYSVLTIDGMTNSDQGLYTCRVRSGPSFKSVNTSVHIYDE[gap - human IgG1 Fc]								0.14	1.34	0.56	0.44	1.28
C34 (Fc fusion, Linker variant based on VEGF-Grab3) EFGRPFVEMYSEIPEIIHMTEGRELVIPCRVTSPNITVTLKKFPLDTLIPDGKRIIWDSRKGFIISNATYKEIGLLTCEATVNGHLYKTNYLTHRQTNTIIDVQISTPSPVTLLRGHTLVLNCTATTPLNTRVQMTWSYPDEKNKNASVRRRIDQSNSHANIFYSVLTIDKMQNKDKGLYTCRVRSGPSFKSVNTSVHIYDGSSGEPKSSDKTYTS[gap - human IgG1 Fc with changes]	0.33	0.2	1.6	3.26	4.6	0.71						
